Reference: PubChem BioAssay (Tox21)
Where “and” joins values, the source holds several entries; their conditions need not be identical. Equal entries are not always repeated. This list was built around the results that the source calls inconclusive (neither active nor inactive); the mix of calls is not that of the screen. Potencies beside an inconclusive call are fits to weak or partial responses and may not hold up. A structure can be active in one record and inactive in another. Calls of active or inactive are those of the source. Calls come from the whole dose curve; as a rule, active = well fitted curve in the direction sought with a large enough effect in the repeat runs; inconclusive = weak or mixed curves; inactive = no such curve, though single readings can be large; an effect the other way counts as inactive or inconclusive.

Test: qHTS assay for identifying genotoxic compounds that show differential cytotoxicity against isogenic chicken DT40 cell lines with known DNA damage response pathways - Rev3 mutant cell line (AID 743014); note: nearly all actives have a fitted effect of over 55% in size
Details: chicken DT40 Rev3-/- viability, CellTiter-Glo, 40 h; activity, negative = cytotoxicity: at 68.4 µM (top of the series) unless noted
% is set by controls: 0 for no effect and ±100 for the full control effect; potency is the fitted concentration of half-maximal effect; tags give direction and shape of the fitted curve.

| Structure (SMILES) | Potency | activity, negative = cytotoxicity |
| --- | --- | --- |
| CON(C)C(=O)Nc1ccc(Cl)cc1 | inactive |  |
| Nc1cc(Cl)ccc1Cl | inactive |  |
| CS(=O)(=O)c1cc(C(F)(F)F)ccc1C(=O)c1cnoc1C1CC1 |  | inconclusive: -34% [cytotoxic] |
| c1ccc2c(c1)sc1ccccc12 | inconclusive: 16.8 µM [cytotoxic, partial curve] and inconclusive: 43.3 µM [cytotoxic, partial curve] |  |
| CC(Oc1ccc(Oc2ncc(C(F)(F)F)cc2Cl)cc1)C(=O)O (stereo unspecified) | active: 68.6 µM |  |
| COC(C)(C)CCCC(C)C/C=C/C(C)=C/C(=O)OC(C)C (stereo unspecified) | inconclusive: 33.5 µM [cytotoxic, single point] |  |
| CN(C)C(=O)Nc1ccc(Cl)cc1 | inconclusive: 53.5 µM [cytotoxic, partial curve] and inconclusive: 19.3 µM [cytotoxic, partial curve, poor fit] |  |
| CCOC(=O)CBr | inactive |  |
| CCC(COC(=O)c1cc(OC)c(OC)c(OC)c1)(c1ccccc1)N(C)C (stereo unspecified) | active: 3.35 µM |  |
| FC(F)(F)c1cccc(C2=CCN(CCc3ccc4ccccc4c3)CC2)c1 | inconclusive: 23.7 µM [cytotoxic, partial curve] |  |
| Cc1ccccc1CCl | inconclusive: 3.86 µM [cytotoxic, partial curve, poor fit] |  |
| O=C(CCl)Nc1ccccc1 | active: 10.9 µM |  |
| Oc1cccc(Cl)c1Cl | inconclusive: 77.3 µM [cytotoxic, single point] |  |
| CNC(=O)Oc1cccc2c1OC(C)(C)C2 | active: 24.3 µM |  |

Test: qHTS assay for identifying genotoxic compounds that show differential cytotoxicity against isogenic chicken DT40 cell lines with known DNA damage response pathways - Rad54/Ku70 mutant cell line (AID 743015); note: nearly all actives have a fitted effect of over 60% in size
Details: DT40 Rad54/Ku70 mutant viability, CellTiter-Glo, 40 h; activity change, negative = cytotoxicity: at 66.8 µM (top of the series) unless noted

| Structure (SMILES) | Potency |
| --- | --- |
| c1ccc2c(c1)sc1ccccc12 | inconclusive: 16.8 µM [cytotoxic, full curve] |
| CN(C)C(=O)Nc1ccc(Cl)cc1 | inconclusive: 67.4 µM [cytotoxic, partial curve, poor fit] and inconclusive: 68.6 µM [cytotoxic, single point] |
| FC(F)(F)c1cccc(C2=CCN(CCc3ccc4ccccc4c3)CC2)c1 | inconclusive: 29.8 µM [cytotoxic, single point] |
| Nc1nc(=S)[nH][nH]1 | inconclusive: 68.6 µM [cytotoxic, single point] |
| O=NN(c1ccccc1)c1ccccc1 | inconclusive: 48.6 µM [cytotoxic, partial curve] |
| O=C1CCCCC1Cl (stereo unspecified) | inactive |
| CNC(=O)Oc1cccc2c1OC(C)(C)C2 | inconclusive: 68.6 µM [cytotoxic, single point] |
